# Measured values as given in publication PMC12040169 (PLOS Biology, 2025).
# The other results are listed elsewhere or left out.
# Test system: T1, C. trachomatis L2/434/Bu expressing GFP (CTL2-GFP)
# T1 construct: L2/434/Bu GFP intracellular growth in HeLa cells
# Design: species or system HeLa; C. trachomatis total inclusion area by high-content imaging, normalised to DMSO
# Conditions: total inclusion area; 28.5 h, 10 µM; inhibitor
# Procedure, shortened: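 Imaging read-out: GFP inclusions and Hoechst nuclei captured by high-content imaging after fixation. Inclusion area/number = chlamydial growth; nuclei count = host cell viability. MIC calculated per earlier method.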
row,SMILES,% of control remaining
1,CC1Cc2cc(-c3cc4ccccn4c3)ccc2N1S(C)(=O)=O (stereo not shown) [CBK285227],98.3475
2,CS(=O)(=O)c1ccc(CN2CCOC3(CCN(C(=O)c4ccc5ccccc5c4)CC3)C2)cc1 [CBK161122A],58.9409
3,CC(=O)NCC1OCCc2ccccc21 (stereo not shown) [CBK026449],91.8412
4,CCOCCn1c(CN2CCCCC2)nc2c1c(=O)n(C)c(=O)n2C [CBK306028],92.6327
5,CCOC(=O)c1[nH]c2ccccc2c1NS(=O)(=O)c1ccc(C)c([N+](=O)[O-])c1 [CBK047427],87.3341
6,CC(C)(c1noc(C2CCOCC2)n1)S(=O)(=O)c1ccc(Br)cc1 [CBK305543],97.7814
7,COc1ccc(OC(=O)C2CCN(C(=O)CC(C)C)CC2)c([N+](=O)[O-])c1 [CBK154770],96.2001
8,CNC(=O)c1cccc(NC(=O)c2cc(-c3cccnc3)cnc2NCc2ccc3c(c2)OCO3)c1 [CBK076291],66.9605
9,O=C(c1ccc2[nH]c(=O)[nH]c2c1)N1CCC2(CCNC2)C1 (stereo not shown) [CBK156747C],79.2915
10,COC(=O)c1cc(OC)c(OC)cc1NC(=S)N1CCC(C(N)=O)CC1 [CBK268507],145.201
11,CCCN(CCC)C(=O)c1nc(C)c(C(=O)N(CCC)CCC)nc1C [CBK023232],86.3587
12,COc1ccc(-n2ncc3c2CCCN(C(=O)C2CC2)C3)cc1 [CBK284498],103.504
13,CCOC(=O)C1CCN(Cn2nc(O)ccc2=O)CC1 [CBK263331],106.685
14,O=C(c1ccoc1)N1CCC2(CCCN(Cc3cc(=O)[nH]c(=O)[nH]3)C2)C1 (stereo not shown) [CBK132823],119.604
15,CN(CC(=O)Nc1ccc(Cl)c(C(F)(F)F)c1)C(=O)c1cc(O)nc2ccccc12 [CBK295304],76.4936
16,O=C(Cc1ccc(Cl)cc1Cl)Nc1ccc(-c2nnc3n2CCCCC3)cc1 [CBK296949],101.772
17,Cc1cc(C(=O)COc2cccc(-n3cnnn3)c2)c(C)n1C(C)c1ccccc1 (stereo not shown) [CBK295643],83.3268
18,c1csc(CNc2nccnc2-c2cccs2)c1 [CBK036602],89.3665
19,CCS(=O)(=O)NC1CC(C)(C)Cc2c1cnn2-c1ccc(OC)cc1 (stereo not shown) [CBK306656],85.2742
20,O=[N+]([O-])c1ccc(CN2CCN(Cc3ccc4c(c3)OCO4)CC2)o1 [CBK074557],78.1274
21,O=C(Cc1noc2ccccc12)Nc1ccc(N2CCCS2(=O)=O)cc1 [CBK304521],74.8639
22,O=C(c1cccc2[nH]ccc12)N1CCCC2(CCN(Cc3ccccc3)C2)C1 (stereo not shown) [CBK136887],99.4861
23,CCN(Cc1ccccc1)C(=O)NCCc1c[nH]c2ccc(OC)cc12 [CBK155226],92.1891
24,O=S(=O)(NCc1ccccc1)c1cccc(S(=O)(=O)NCc2ccccc2)c1 [CBK263250],122.454
25,COc1ccc(OCC(O)CN2CCN(c3ccccn3)CC2)cc1 (stereo not shown) [CBK278239C],102.074
26,CC(=O)Nc1ccc(-c2cncc(Nc3ccc(F)c(Cl)c3)n2)cc1 [CBK065765],124.212
27,CCc1nc2c(OCCCN(C)S(C)(=O)=O)cccn2c1N(C)C(=O)c1ccco1 [CBK147435],101.441

row,SMILES,% of control remaining
1,O=c1[nH]c(=O)c2cc(S(=O)(=O)NC3CCN(Cc4ccccc4)C3)ccc2[nH]1 (stereo not shown) [CBK286380],95.7435
2,CC(CN1CCN(Cc2ccccc2)CC1)N(C(=O)c1ccoc1)c1ccccn1 (stereo not shown) [CBK074861C],95.8555
3,CCn1c(SCc2cc(C)no2)nnc1C1CC1 [CBK297758],105.844
4,CN1C[C@@H](NS(C)(=O)=O)C[C@H]1c1nc(-c2ccc3c(c2)OCO3)no1 [CBK288875],106.75
5,O=S(=O)(Nc1cccnc1N1CCOCC1)c1ccc(F)cc1 [CBK051009],45.1083
6,CCc1noc(C)c1C(=O)N1CC(C(=O)N2CCN(c3ccccc3)CC2)C1 [CBK285667],107.583
7,CCn1ncc(CN2CCCCCC2c2cc(C)on2)c1C (stereo not shown) [CBK282141],108.537
8,C=CCN1C(=O)C2(CC(=O)N(CCOc3ccccc3)C2=O)c2ccccc21 (stereo not shown) [CBK075159],98.6342
9,Cc1cc(-c2cn(C)nc2C2CCCN2C(=O)CC(C)(C)C)on1 (stereo not shown) [CBK283453],96.4224
10,CCN(CC(=O)O)S(=O)(=O)c1cc(C)ccc1OC [CBK268694],94.1023
11,CCc1nnc(NS(=O)(=O)c2ccc(N/C=C\C(=O)c3ccc4ccccc4c3)cc2)s1 [CBK263385],26.0055
12,COc1ccc(N)cc1OCc1cn2ccccc2n1 [CBK295609],95.1179
13,CN1C(=O)COc2ccccc2CCCC[C@@H]2[C@H]1CCCN2CCO [CBK292112],118.297
14,CCc1noc(CN2CCN(c3ccc(C(=O)OC)cc3)CC2C)n1 (stereo not shown) [CBK306154],25.5003
15,CCOC(=O)CNS(=O)(=O)c1cccc(Cl)c1C [CBK004702],129.401
16,FC(F)(F)c1cccc(SCCc2ccccn2)n1 [CBK103719],83.0418
17,CC(C)CNC(=O)c1cc(C2CN(Cc3c[nH]nc3C(C)(C)C)CCO2)nc2ccccc12 (stereo not shown) [CBK285925],81.6299
18,CCOc1ccc(S(=O)(=O)Nc2cnccn2)cc1 [CBK270313],116.243
19,COc1ccc(CNc2ccc(N3CCOCC3)c(C(=O)O)c2)cc1OC [CBK269915],105.943
20,O=C(O)CCCN1C(=O)/C(=C/c2ccc(O)c(O)c2)SC1=S [CBK262852],65.966
21,O=C1NCCN1CCOc1nccnc1-c1ccc(F)cc1 [CBK106898],105.027
22,COc1ccccc1-c1cn2ccnc2c(NCCc2ccccn2)n1 [CBK037980],119.731
23,CSCCC(=O)N1CCC(Cn2cncn2)(C2CCCCC2)CC1 [CBK136799],85.7767
24,CCN1CCC(Oc2nccnc2OCc2cc(C)on2)CC1 [CBK082962T],96.6697
25,COCCOCCOc1ccccc1OCCOCCOC [CBK009636],45.2905
26,CC(Oc1ccc(-c2ccccc2)cc1)C(=O)Nc1ccc2c(c1)OCCO2 (stereo not shown) [CBK268002],113.004
27,Cc1ccc(Cn2c(OCCN(C)C)nc3c2c(=O)n(C)c(=O)n3C)cc1 [CBK134241],91.8489

row,SMILES,% of control remaining
1,CCN(CC)C(=O)C1CCCN1C(=O)c1ccnc(N(C)C)c1 (stereo not shown) [CBK305086],79.0306
2,C(=N\N1CCN(Cc2cccc3ccccc23)CC1)/c1ccncc1 [CBK263003],97.5317
3,O=C(Cn1c(NCCCO)nc2ccccc21)c1ccc(Cl)c(Cl)c1 [CBK262905B],97.5818
4,Cc1ccc2c(c1)C(=O)CC1(CCN(C(=O)C3CCCC3)CC1)O2 [CBK283718],109.521
5,CC(C)c1ncc(CN2CCC(CC(=O)N3CCN(c4ccccc4)CC3)CC2)cn1 [CBK286048],76.8105
6,CC(C)CNC(=S)N[C@H]1CO[C@H]2[C@@H]1OC[C@@H]2Nc1nccc(C(C)(C)C)n1 [CBK289523],92.5865
7,CCn1c(C)cc(C(=O)N2CCN(c3nccc(OC)n3)CC2)c1C [CBK305791],102.837
8,Cc1nn(C)c(C)c1CN(C(=O)c1ccc(C)n(C)c1=O)C1CC1 [CBK281450],88.8485
9,COc1cccc(C2Nc3ccc4ccccc4c3C3=C2C(=O)CC(C)(C)C3)c1OCC(=O)O (stereo not shown) [CBK263045],95.0027
10,C=CCn1c(Cc2csc(NC(=O)c3ccc([N+](=O)[O-])cc3Cl)n2)n[nH]c1=S [CBK295291],93.71
11,COc1ccc([C@@]23CC[C@@H](NC(=O)Nc4ccc(OC(F)(F)F)cc4)C[C@@H]2N(C)CC3)cc1OC [CBK036455T],83.4238
12,O=C(Cc1ccc(Cl)cc1)NC(=S)Nc1ccccc1[N+](=O)[O-] [CBK263909],96.2263
13,CN(C)C(=O)CCNC(=O)c1ccc2c(c1)nc(N1CC[C@H](O)C1)n2C [CBK306671],55.8065
14,CCc1nn(CC(=O)NC2CCC2)c(=O)c2cc3sc(C)cc3n12 [CBK284142],97.6331
15,CC(=O)c1ccc(C(=O)Nc2ccc3nc(C)sc3c2)cc1 [CBK287310],127.186
16,COc1ccc(CNC(=O)c2cc(S(=O)(=O)N3CCCC3)c[nH]2)cc1 [CBK304601],75.9862
17,Cc1ccc(N2C(=O)C(CC(=O)Nc3cccc(F)c3)N(CCc3ccncc3)C2=O)cc1 (stereo not shown) [CBK268891],93.1916
18,CCOC(=O)c1cnn2c(O)cc(CN3CCc4sccc4C3)nc12 [CBK305680],86.5293
19,O=C(Nc1cnc(-c2ccc(F)c(Cl)c2)c(-c2cccnc2)n1)c1cnccn1 [CBK036819],101.416
20,Nc1ncccc1C(=O)OCc1ccc(-c2ccccc2)cc1 [CBK295353],95.863
21,COc1cccc(CC(=O)NCCNc2cccc(F)c2C#N)c1 [CBK305684],65.2811
22,CC(C)(C)NCCN1CCn2c1nc1ccccc12 [CBK019113],36.1487
23,O=C(O)CNC1=NC2(CCCCC2)Cc2ccccc21 [CBK287001],82.2505
24,O=C(NCc1ccco1)c1ccc2c(c1)OCO2 [CBK262133],99.1335
25,OCCNc1nc(Nc2ccc(O)cc2)nc2ccccc12 [CBK266606C],79.2894
